Assay results: PubChem BioAssay AID1745853 (National Center for Advancing Translational Sciences (NCATS), 2022)
“And” between values parts separate entries of the source, which are not always exact repeats. Equal values may be shown once. The list shows a part of the results. Shown are side measurements of this screen, not its main read-out; they come without a call.

Assays:
Test in all cases: Primary Screen for Target Class Profiling of Small Molecule Inhibitors of Methyltransferases
[1] = target: Glycine N-methyltransferase (Homo sapiens) (UniProt Q14749); details: purified enzyme, MTase-Glo SAH luminescence; measured here: GNMT inhibition; at 40 µM; stronger effect = lower value
In short: (§1)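 Each enzyme was reacted with SAM and its substrate, with compounds tested once at 40 uM; SAH formed was read by MTase-Glo luminescence.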

[2] = target: Guanidinoacetate N-methyltransferase (Homo sapiens) (UniProt Q14353); details: purified enzyme, MTase-Glo SAH luminescence; measured here: GAMT inhibition; at 40 µM; stronger effect = lower value
In short: as §1

[3] = target: Histamine N-methyltransferase (Homo sapiens) (UniProt P50135); details: purified enzyme, MTase-Glo SAH luminescence; measured here: HNMT inhibition; at 40 µM; stronger effect = lower value
In short: as §1

[4] = target: Nicotinamide N-methyltransferase (Homo sapiens) (UniProt P40261); details: purified enzyme, MTase-Glo SAH luminescence; measured here: NNMT inhibition; at 40 µM; stronger effect = lower value
In short: as §1

[5] = target: Phenylethanolamine N-methyltransferase (Homo sapiens) (UniProt P11086); details: purified enzyme, MTase-Glo SAH luminescence; measured here: PNMT inhibition; at 40 µM; stronger effect = lower value
In short: as §1
% is set by controls: 0 for no effect and ±100 for the full control effect.

SMILES | activity change, negative = inhibition [1] [%] | activity change, negative = inhibition [2] | activity change, negative = inhibition [3] [%] | activity change, negative = inhibition [4] | activity change, negative = inhibition [5]
CC1=NOC2(CCN(C(=O)c3ccccc3)C2)C1 (stereo not given) | -7.26 | -7.68% | -5.02 | -19.6% | -8.07%
O=S(=O)(c1ccccc1)N1CCCC(Cc2noc(-c3ccncc3)n2)C1 (stereo not given) | -3.81 | 2.88% | 0.497 | -2.47% | -15.7%
CCN(CC)c1nc2c(S(=O)(=O)c3ccc(C(C)C)cc3)nnn2c2ccccc12 | -8.53 | -1.45% | -11.3 | -12.7% | -16.2%
CC1CC(C)CN(CCCN2C(=O)c3ccc(-c4ccco4)n3CC2(C)C(=O)NC2CCCCCC2)C1 (stereo not given) | -13.9 | 1.28% | -14.5 | -17.1% | -3.01%
CCOc1cccc(C2c3cccn3-c3sc4c(c3CN2C(=O)Nc2ccc(F)cc2)CCCC4)c1 (stereo not given) | -1.1 | 0% | 1.24 | -1.65% | 2.17%
Cc1cnc(-c2ccccc2)n1C1CCN(C(=O)c2ccco2)CC1 | -3.27 | -1.77% | 0.292 | -4.11% | -1.06%
O=C(NC1CCCCCC1)c1cc(-c2cc(Cl)cc(Cl)c2)c2nncn2n1 | -9.8 | -13.8% | -7.5 | -18.1% | -14.7%
CC(C)=CCc1ccc(Oc2c(O)cc(C)cc2CO)c(C(=O)O)c1O | 3.07 | 4.04% | 6.88 | -6.1% | 4.45%
CCCN1CCN(CCCN2C(=O)c3cc4occc4n3CC2(C)C(=O)NC2CCCCCC2)CC1 (stereo not given) | 0.732 | 3.92% | 4.53 | 1.83% | -0.916%
Cc1cc(Cn2cnc3c2C[C@@H](C(=O)O)N(C(=O)C(c2ccccc2)c2ccccc2)C3)ccc1N | -5.81 | 10.5% | 3.2 | -4.7% | 6.12%
CCCn1c(=O)c2cc(Cl)ccc2n2c(=O)n(CC(=O)Nc3cc(F)ccc3F)nc12 | 3.86 | 0% | 10.8 | 9.44% | 6.26%
CCCn1c(=O)c2ccc(C(=O)NC(C)C)cc2n2c(SCC(=O)Nc3ccc(C)c(C)c3)nnc12 | -2.63 | -4.22% | -0.046 | -9.74% | -3.46%
CCCn1c(=O)c2ccc(C(=O)NC(C)C)cc2n2c(=O)n(CC(=O)c3cc(C)ccc3C)nc12 | 6.11 | 0.406% | 12.1 | 4.44% | 7.33%
Cc1ccc(CN2C(=O)c3nc4ccccc4n3CC2(C)C(=O)NC2CCCCC2C)cc1 (stereo not given) | 1.3 | 3% | 5.74 | 5.29% | -0.581%
Cc1cnc(C(=O)N2CCCCCNC(=O)[C@@H]3CCC[C@@H]32)cn1 | -2.44 | -2.12% | -1.58 | -2.67% | 5.17%
CCC(C)NC(=O)c1ccc2c(=O)n(C3CC3)c3nn(CC(=O)NC4CCCC4)c(=O)n3c2c1 (stereo not given) | 7.42 | 0% | 12.3 | 3.63% | 5.98%
CN(Cc1ccccc1CN1CCCC1)C(=O)C1CC2(CCNCC2)CN1C (stereo not given) | -1.18 | -2.33% | -22.7 | -4.26% | -2.91%
COc1ccc2cc3n(c2c1)CC(C)(C(=O)NC1CCCC1)N(c1cccc(Cl)c1)C3=O (stereo not given) | -0.703 | 0% | 1.71 | -2.26% | -4.69%
O=C(NCc1cccc(O)c1)c1cc2cc(F)ccc2[nH]1 | -6.07 | 7.04% | 8.74 | -10.2% | 4.12%
CCCCCCC(=O)OC1CC(C)(C)NC(C)(C)C1 | 7.39 | 8.4% | 10.4 | -10.1% | -7.11%
CC(C)OCCCN1C(=O)c2nc3ccccc3n2CC1(C)C(=O)NC1CCCCCC1 (stereo not given) | 6.05 | 0% | 11 | 13.2% | 3.73%
CC[C@H]1OC(=O)C[C@@H](O)[C@H](C)[C@@H](O[C@@H]2O[C@H](C)[C@@H](O)[C@H](N(C)C)[C@H]2O)[C@@H](CCN2C[C@H](C)C[C@H](C)C2)C[C@@H](C)C(=O)/C=C/C(C)=C/[C@@H]1CO[C@@H]1O[C@H](C)[C@@H](O)[C@@H](OC)[C@H]1OC | 1.77 | 1.23% | 0.236 | -8.61% | -0.652%
CC(C)C(C#N)O[C@@H]1O[C@H](CO[C@@H]2O[C@@H](C)[C@H](O)[C@@H](O)[C@H]2O)[C@@H](O)[C@H](O)[C@H]1O (stereo not given in full) | 3.09 | 2.01% | 8.84 | -10.1% | -4.25%
COc1ccc(CCN2CCN(CCCc3ccccc3)CC2)cc1OC | 1.71 | 4.81% | 0.46 | -12.5% | -4.97%
O=C1Cc2c([nH]c3ccc(Br)cc23)-c2ccccc2N1 | 0.521 | 1.64% and 12.3% | 4.88 | -10.1% and -5.1% | -1.06% and 0.505%
Cn1ncc(S(=O)(=O)Cc2ccccc2)c(Br)c1=O | 3.43 | 12.7% | 11.2 | -13.4% | 1.28%
COc1cc(-c2nnc3n(Cc4ccccc4Cl)c(=O)c4ccccc4n23)ccc1O | -11.8 | 1.45% | 3.51 | -1.97% | 0.165%
O=C(CC1=CCCCC1)N1CC(F)(F)C[C@H]1c1nc(C2CC2)no1 | -0.949 | 0.68% | 1.15 | -6.54% | -2.65%
COc1ccccc1N1CCN(CCCCNC(=O)c2ccc(-c3cscn3)cc2)CC1 | -0.536 | -5.64% | -20.4 | -26.6% | -12.8%
O=C(N[C@H]1CCOC[C@H]1C1CCOCC1)c1ccoc1 | -0.916 | 4.89% | 2.6 | -1.8% | 15.5%
